# Laboratory results taken from PubChem BioAssay AID1347120 (National Center for Advancing Translational Sciences (NCATS), 2019).
# About 930 (0.24%) of roughly 390,000 compounds were called active. The inconclusive results got no clear call from the source; some entries with a clear call stand among them for comparison. Calls come from the whole dose curve; as a rule, active = well fitted activation curve with a large enough effect; inconclusive = small, poorly fitted or top-dose-only effect; inactive = no such curve, though single readings can be large or run the other way. Where the call is inconclusive, the potency comes from a doubtful curve fit.
# Experiment: qHTS for Suppressors of FUS Proteinopathy: Primary screen using FUS-linked yeast assay; note: nearly all actives have a fitted effect of over 55% in size;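 for growth rescue (activation): plate controls were DMSO vehicle for no effect and reference control for full effect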
# Conditions: S. cerevisiae FUS-expressing, OD600, 24 h; Potency: growth rescue; growth rescue (activation): at 76.6 µM (top of the series)
# Method in brief: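 Quantitative HTS measuring growth restoration of FUS-toxic yeast. Galactose-induced cells (OD 0.005) were exposed 24hr at 30C to compounds at several concentrations, then absorbance at 600 nm was recorded.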
# Potency is the fitted concentration of half-maximal effect; tags give direction and shape of the fitted curve.
SMILES,Potency,growth rescue (activation)
CC(Nc1nc(-c2ccc(Cl)cc2)cs1)c1nc2cc(Cl)c(N3CCCCC3)cc2n1CCOCCO (stereo not drawn),"inconclusive: 31.6 µM [activator, single point]",
Cc1ccc(C)c(NC(=O)CN2C(=O)C3(SCC(=O)N3c3ccc(C)c(C)c3)c3ccccc32)c1 (stereo not drawn),,inactive: 11.4%
COc1cc(F)cc(-c2ccc3c(c2)c(C#Cc2ccsc2)c(-c2cc(OC)cc(OC)c2)n3C)c1,"inconclusive: 28.2 µM [activator, single point]",
Cc1ccc(CNC(=O)Nc2ccccc2)n1C,"inconclusive: 50.1 µM [activator, single point]",
Cc1ccc(/C=N/Nc2nc(C(C)(C)C)cs2)o1,,inactive: 26.6%
COc1cccc(N2CCN(C(=O)C3CCN(S(=O)(=O)c4ccc5c(c4)CC(C)N5C(C)=O)CC3)CC2)c1 (stereo not drawn),active: 14.1 µM,
Cc1ccc(C2(C)NC(=O)N(CC(=O)Nc3ccccc3N3CCCC3)C2=O)cc1 (stereo not drawn),,inactive: 8.89%
Cc1ccc(NC(=O)N/C=C/c2ccco2)cc1C,"inconclusive: 28.2 µM [activator, single point]",
CCOC(=O)c1ccc(NC(=S)N2CCSC2c2ccc(Br)cc2)cc1 (stereo not drawn),,inactive: 20.4%
CCOC(=O)[C@@]12CN(C(=O)OC(C)(C)C)CC=C1N(Cc1ccc(OC)cc1)C(=O)[C@H]2CC(=O)NCc1ccc(C)o1,"inconclusive: 14.1 µM [activator, partial curve]",
CN(C(=O)COC(=O)COc1ccc2ccccc2c1)c1c(N)n(Cc2ccccc2)c(=O)[nH]c1=O,"inconclusive: 31.6 µM [activator, single point]",
Cc1ccc(NC(=O)/C(C#N)=C/c2cc(C)n(-c3ccc(Br)cc3)c2C)cc1C,"inconclusive: 31.6 µM [activator, single point]",
Cc1nnc(N2CCN(Cc3ccccc3)CC2)[nH]c1=O,"inconclusive: 5.62 µM [activator, partial curve, poor fit]",
CC(C)Oc1ccc(C(=O)Nc2cccc(S(=O)(=O)N3CCCC3)c2)cc1,"inconclusive: 50.1 µM [activator, single point]",
C[n+]1c2n(c3ccccc31)N=C(c1ccc(-c3ccccc3)cc1)CS2,,inactive: -5.21%
Cc1cc(O)c(C(c2ccc(Cl)cc2)N2CCN(c3ccccc3)CC2)c(=O)n1Cc1ccco1 (stereo not drawn),,inactive: -0.679%
NNC(=O)c1cc2ccccc2[nH]1,,inactive: 16.7%
Cc1cc(NC(=O)COC(=O)C2CC(=O)N(c3ccc(Cl)cc3)C2)no1 (stereo not drawn),,inactive: 0.315%
COc1ccc(NC(=O)c2cnn(-c3ccc(F)cc3F)c2C2CCN(C(=O)OC(C)(C)C)CC2)cc1Cl,active: 12.6 µM,
CC(C)C(=O)Nc1ccc(C(=O)NCc2cccnc2)cc1,,inconclusive: 53% [activator]
CN(C)c1cccc(-c2ccnc(N3CCC(C(N)=O)CC3)n2)c1,,inactive: 6.73%
CCCCN(C(=O)COC(=O)CSc1cc(C)c2ccccc2n1)c1c(N)n(CCC)c(=O)[nH]c1=O,"inconclusive: 35.5 µM [activator, single point]",

SMILES,Potency,growth rescue (activation)
COc1ccc(NS(=O)(=O)c2cc(N)ccc2N2CCCCC2)cc1,"inconclusive: 35.5 µM [activator, partial curve, poor fit]",
Cc1ccccc1C(=O)NC(=S)Nc1ccc(Oc2ccc(Cl)cc2)cc1,"inconclusive: 1.78 µM [activator, full curve]",
CCN(CC)C(=S)SCC(=O)c1ccc(Br)cc1,,inactive: -7.88%
C[C@@H]1CN([C@H](C)CO)S(=O)(=O)c2ccc(C#Cc3ccccc3F)cc2O[C@@H]1CN(C)C(=O)Cc1ccccc1,"inconclusive: 28.2 µM [activator, single point]",
COc1ccc(CNC(=O)c2sc(=O)n(Cc3ccc(-c4ccccc4)cc3)c2C)cc1OC,"inconclusive: 14.1 µM [activator, partial curve, poor fit]",
Cc1ccc(S(=O)(=O)N(CC(=O)N=Nc2c(O)[nH]c3ccccc23)c2cccc(C)c2)cc1,"inconclusive: 50.1 µM [activator, single point]",
O=C(Nc1ccc2c(c1)OCO2)c1cc2ncc(Br)cn2n1,"inconclusive: 28.2 µM [activator, single point]",
COc1cccc(-c2nc(SCC(=O)Nc3ccc4c(c3)OCCO4)c(-c3ccccc3)[nH]2)c1,"inconclusive: 50.1 µM [activator, single point]",
CCc1c(C)nc2ncnn2c1Nc1ccc(C)cc1,,inactive: 3.16%
CC12C=CC3(CN(Cc4ccccc4)C(=O)C3C1C(=O)NCc1ccco1)O2 (stereo not drawn),,inconclusive: 19.5% [activator]
O=S1(=O)c2ccccc2N(Cc2cccc(C(F)(F)F)c2)c2ccccc21,"inconclusive: 35.5 µM [activator, single point]",
Oc1c(N=Nc2nn[nH]n2)ccc2ccccc12,"inconclusive: 31.6 µM [activator, partial curve, poor fit]",
COc1ccc(C(=O)N2c3ccccc3C(C)(c3ccc(Cl)cc3)CC2(C)C)cc1 (stereo not drawn),,inactive: 28.7%
Cc1cccc(NC(=O)c2ccc(-n3cccn3)c([N+](=O)[O-])c2)c1,,inactive: 15.1%
N#Cc1nc(-c2ccc(OCc3ccccc3)cc2)oc1N1CCC(C(N)=O)CC1,,inactive: -5.78%
CC(C)(O)c1[nH]c2cc(C(F)(F)F)ccc2c1C(C)(C)O,,inactive: -10.7%
Cc1cc(-c2csc(NC(=O)C3=COCCO3)n2)c(C)n1C,"inconclusive: 8.91 µM [activator, partial curve]",
COc1ccc(CN(C)C(=O)c2ccc(OCC(=O)Nc3cccc(C(F)(F)F)c3)c(OC)c2)c(OC)c1,"inconclusive: 28.2 µM [activator, single point]",
COC(=O)C1=C[C@@H](C(=O)OC)[C@@H]2C3=C(C(=O)[C@@]2(C)NC(=O)c2ccccc2)[C@H](c2ccccc2)n2c(=O)n(-c4ccccc4)c(=O)n2[C@@H]3C1,"inconclusive: 25.1 µM [activator, single point]",
N#Cc1c(-c2cccc(F)c2)cc(-c2ccccc2)nc1Br,,inactive: -0.0483%
COc1cccc(C(=O)Nc2ccc(C(=O)NCC3COc4ccccc4O3)cc2)c1 (stereo not drawn),,inactive: -5.98%
